Results on 66 compounds are retold here after PubChem BioAssay AID1240 (Sanford-Burnham Center for Chemical Genomics, 2008).

About 800 (1.6%) of roughly 50,000 compounds showed an effect of 50% or more. The list shows a part of the results.

For this assay, the target named is Bcl-2-like protein 10 (Homo sapiens) (UniProt Q9HD36). Description: TR3 peptide-Bcl-B binding displacers, biochemical primary FP assay, phenotype converters (AID 1240).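 Also: 0% = Bcl-B with tracer peptide and DMSO and 100% = tracer peptide lacking Bcl-B.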 Conditions: GST-Bcl-B / FITC-TR3 peptide fluorescence polarization; stronger effect = higher value; compound at 3.75 mg/L. Background: Polarisation of emitted light reports the rotation of a fluorescent probe.
UniProt Q9HD36, sequence (Q9HD36 whole entry, looked up): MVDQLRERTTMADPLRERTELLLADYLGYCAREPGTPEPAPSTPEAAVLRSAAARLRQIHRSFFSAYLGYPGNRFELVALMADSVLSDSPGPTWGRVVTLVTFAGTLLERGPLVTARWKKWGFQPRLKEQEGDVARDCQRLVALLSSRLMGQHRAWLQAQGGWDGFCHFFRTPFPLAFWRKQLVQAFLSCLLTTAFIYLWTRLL
As for `O=C(Nc1ccc(Cc2ccncc2)cc1)Nc1cc(F)c(F)cc1Cl`, the displacement is -4.2%.
Consider `CCOc1ccccc1N/C=C(/C#N)c1nc(-c2ccc(OC)c(OC)c2)cs1`, for which the displacement is -7.4%.
The result for `CCOc1ccc(N/C=C\C(=O)c2ccc3c(c2)OCO3)c([N+](=O)[O-])c1` reads 12%; that for `COc1cc(C=C2C(=O)NC(=O)NC2=O)ccc1OCCOc1ccc(C)cc1`, 32.2%.
Next, `COc1ccc(NC(=O)C2(c3ccccc3)CC2(Cl)Cl)cc1` (stereo unspecified): 8.1%.
For `CCOc1cc(Br)cc(/C=C2/SC(=S)N(c3ccccc3)C2=O)c1O`, the displacement is -35.5%.
As to `O=C(NCC1(c2ccccc2)CCOCC1)c1cccc(Br)c1`, the displacement is -2.8%.
The result for `Cc1cc([N+](=O)[O-])ccc1-c1ccc(C(=O)Nc2ccc(-c3nc4ccccc4o3)c(O)c2)o1` reads 10.8%.
Next, `COc1ccc(-c2nnc(NC(=O)c3cccs3)s2)cc1`: 8.7%.
The result for `COc1ccc(S(=O)(=O)NCC(C)C)cc1Br` reads 6.2%.
With `Cc1[nH]n(-c2ccc(Cl)c(C(=O)O)c2)c(=O)c1/C=C1\C=c2ccccc2=NC1=O`, the displacement turned out to be 15%.
As to `COc1ccc(C(=O)N2CCN(S(C)(=O)=O)CC2)cc1OC`, the displacement is -4.9%.
Next, `COc1cc(/C=C2/SC(=S)N(CCC(=O)O)C2=O)cc(Br)c1O`: -13.7%; `Cc1ccc(-n2c(C)cc(/C=C3\NC(=O)NC3=O)c2C)cc1C`: 11.1%.
As to `CC1=C(C(=O)Nc2ccccc2)C(c2ccc(C)o2)N2C(=O)CSC2=N1` (stereo unspecified), the displacement was -40.8%.
Regarding `Cc1ccc(-c2nc3cccnc3o2)cc1NC(=O)COc1ccc(C(C)(C)C)cc1`, the displacement is -1.7%.
Regarding `CCOc1ccc(C(=O)Nc2ccc(-c3nc4ncccc4o3)cc2)cc1Cl`, the displacement came to 7%.
For the compound `O=C(Nc1ccc(-c2nc3ccccc3s2)cc1)c1cc2ccccc2o1`, the displacement was -6.9%.
Next, `CC1CCc2c(sc(NC(=O)Nc3cccc(Cl)c3)c2C#N)C1` (stereo unspecified): 1.7%.
Consider `COc1ccccc1/C=C1\SC(=S)N(NC(=O)c2ccc([N+](=O)[O-])cc2)C1=O`, for which the displacement worked out at 12.7%.
For the compound `CCOC(=O)c1ccc2[nH]c(C)cc(=O)c2c1`, the displacement is -2%.
Next, `COc1ccc(NC(=O)COc2ccc(C)cc2C)c([N+](=O)[O-])c1`: -1.7%; `Cc1cc(C)nc(NN2C(=O)/C(=C/c3ccc(O)cc3)SC2=S)n1`: -73.2%; `O=c1[nH]c(-c2ccc(O)c([N+](=O)[O-])c2)nc2sc3c(c12)CCCC3`: -30.1%.
Regarding `COc1ccc(C2Nc3ccc(C(=O)c4ccccc4)cc3NC3=C2C(=O)CC(C)(C)C3)cc1` (stereo unspecified), the displacement amounted to 19%.
The result for `COc1ccccc1N(CC(=O)NCCSC)S(=O)(=O)c1ccccc1` reads -0.5%; that for `CN1CCN(C(=O)c2ccccc2NC(=O)CN2C(=O)c3ccccc3C2=O)CC1`, 9.4%; that for `C/C(=N\Nc1nc(C(C)(C)C)cs1)c1ccc(O)cc1`, -3.7%.
For `CCN1C(=O)C(=Cc2ccc([N+](=O)[O-])o2)C(=O)N(CC)C1=S`, the displacement amounted to 29.7%.
Next, `COC(=O)c1c(NC(=O)c2c(-c3ccccc3)noc2C)sc2c1CCCCC2`: -2.8%.
Next, `COC(=O)C1=C(C)NC2=C(C(=O)CC(c3cccs3)C2)C1c1ccc(F)c(F)c1` (stereo unspecified): 11.1%; `c1ccc(Nc2nc(-c3ccncc3)cs2)cc1`: 3.8%.
The result for `Cc1onc(-c2c(Cl)cccc2Cl)c1C(=O)Nc1sc2c(c1C(N)=O)CCCC2` reads -14.6%; that for `O=[N+]([O-])c1ccc(N2CCN(S(=O)(=O)c3ccc4ccccc4c3)CC2)c(Cl)c1`, 2.3%; that for `CCOc1cccc(/C=N/c2ccccn2)c1O`, 10.4%.
Consider `O=C(O)CCCCCN1C(=O)C(=O)/C(=C(/O)c2ccc([N+](=O)[O-])cc2)C1c1cccc(F)c1` (stereo unspecified), for which the displacement is -2%.
Next, `CC(=O)Oc1ccc(/C=C(/NC(=O)c2ccccc2)C(=O)NCCO)cc1`: 1.7%; `C/C(=N/NC(=O)C(=O)N/N=C(/C)c1ccccc1)c1ccccc1`: 3.9%; `COc1ccc(C)cc1NC(=O)COc1cccc2ccccc12`: 17.6%.
`COc1ccc(NC(=O)c2cc3n(n2)C(C(F)(F)F)CC(c2ccco2)N3)c(OC)c1` (stereo unspecified): the displacement is 3%.
Next, `COc1ccc(Br)cc1CN1CCN(S(=O)(=O)c2ccc(Cl)cc2)CC1`: 5.7%; `Cc1cccc(C(=O)Nc2sc3c(c2C(=O)NCc2ccco2)CCCCC3)c1`: -11.7%.
Next, `CCC1CCc2c(sc(NC(=O)CCC3CCCCC3)c2C(N)=O)C1` (stereo unspecified): -10.1%.
For `COc1ccc(/C=C(/C#N)C(N)=O)c2ccccc12`, the displacement was -5.2%.
On to `CCOc1ccc(N(CC(=O)N2CCCC2)S(=O)(=O)c2ccc(SC)cc2)cc1`, for which the displacement worked out at 15.5%.
For the compound `Cc1ccc(/C=N/NC(=O)C(=O)NC(C)(C)C)cc1`, the displacement stood at 9.2%.
In the case of `CCC(=O)c1ccc(N2CCN(C(=O)c3ccc(F)cc3)CC2)c(F)c1`, the displacement is -11.8%.
Take `O=C(Nc1ccccc1)c1ccc(CN2CCN(c3ccccc3)CC2)cc1`: the displacement was -5.8%.
Take `CCOc1cc(/C=C2/SC(=S)N(C)C2=O)ccc1OCCOc1ccccc1C`: the displacement is 3.3%.
For the compound `O=C(Nc1cccc(Cl)c1Cl)c1ccc(CN2CCOCC2)cc1`, the displacement is -1.3%.
Next, `CCCCOC(=O)c1cccc(NC(=O)COc2ccccc2)c1`: -9.4%; `Cc1ccccc1NC(=O)c1c(NC(=O)Cc2ccccc2)sc2c1CCCC2`: 14.2%; `N/C(Cc1ccc(Cl)cc1)=N\OC(=O)c1ccc([N+](=O)[O-])cc1`: -0.8%.
The result for `O=c1/c(=C/c2cccc(Br)c2)sc2nc3cc(Br)cnc3n12` reads -5.6%.
The result for `Cc1cccc(OCCNc2cc(N3CCCC3)ccc2[N+](=O)[O-])c1` reads -6.1%; that for `O=C(Nc1ccccc1)/C(=C\c1ccccc1)NC(=O)c1ccccc1Br`, -13.4%.
As to `O=C(Nc1cccnc1)c1cccc(S(=O)(=O)N2CCCCC2)c1`, the displacement was found to be 1.2%.
The result for `O=C(Nc1ccccc1)C1CCCN1C1CCCCC1` (stereo unspecified) reads 0.7%; that for `CS(=O)(=O)N(Cc1ccc(C(=O)Nc2cccc(C(F)(F)F)c2)cc1)c1cccc(Cl)c1`, -0.3%.
The result for `Cc1c(C(=O)NC2CCCCCC2)cccc1[N+](=O)[O-]` reads -4.8%; that for `O=C(NCc1cccnc1)c1cnn2c(C(F)(F)F)cc(-c3cccs3)nc12`, 0.3%; that for `Cc1ccc(C)c(C(=O)CSc2n[nH]c(-c3ccccc3)n2)c1`, 15.7%.
On to `O=C1/C(=C/c2ccc(-c3ccccc3[N+](=O)[O-])o2)SC(=S)N1Cc1ccccc1`, for which the displacement is 12.2%.
Next, `C=CCN=C1/C(=C(/O)CCC)C(=O)CC(C)(C)C1C(=O)OC` (stereo unspecified): 7.6%.
The result for `CCSCCOC(=O)C1=C(C)NC(=O)NC1c1cc(OC)c(OC)c(OC)c1` (stereo unspecified) reads 7.3%; that for `C=CCC1(N(Cc2ccccc2)C(C)=O)CCCCC1`, 3.9%.
